Here are results for three molecules from paper PMC3139598.

No constants are given. Whether binding was seen depends on the method and setting. In cells and extracts the contact can be indirect. Some binding calls cover weakened binding; strength is not graded here. Tags and fused reporters may be left off the sequences shown.

The labels stand for the following.
B1: HA-X11L (from pcDNA3.1-HA-X11L) (protein, UniProt Q99767 1-749)
chain: MAHRKLESVGSGMLDHRVRPGPVPHSQEPESEDMELPLEGYVPEGLELAALRPESPAPEEQECHNHSPDGDSSSDYVNNTSEEEDYDEGLPEEEEGITYYIRYCPEDDSYLEGMDCNGEEYLAHSAHPVDTDECQEAVEEWTDSAGPHPHGHEAEGSQDYPDGQLPIPEDEPSVLEAHDQEEDGHYCASKEGYQDYYPEEANGNTGASPYRLRRGDGDLEDQEEDIDQIVAEIKMSLSMTSITSASEASPEHGPEPGPEDSVEACPPIKASCSPSRHEARPKSLNLLPEAKHPGDPQRGFKPKTRTPEERLKWPHEQVCNGLEQPRKQQRSDLNGPVDNNNIPETKKVASFPSFVAVPGPCEPEDLIDGIIFAANYLGSTQLLSERNPSKNIRMMQAQEAVSRVKRMQKAAKIKKKANSEGDAQTLTEVDLFISTQRIKVLNADTQETMMDHALRTISYIADIGNIVVLMARRRMPRSASQDCIETTPGAQEGKKQYKMICHVFESEDAQLIAQSIGQAFSVAYQEFLRANGINPEDLSQKEYSDIINTQEMYNDDLIHFSNSENCKELQLEKHKGEILGVVVVESGWGSILPTVILANMMNGGPAARSGKLSIGDQIMSINGTSLVGLPLATCQGIIKGLKNQTQVKLNIVSCPPVTTVLIKRPDLKYQLGFSVQNGIICSLMRGGIAERGGVRVGHRIIEINGQSVVATAHEKIVQALSNSVGEIHMKTMPAAMFRLLTGQETPLYI
B2: HA-X11 (from pcDNA3.1-HA-X11) (protein, UniProt Q02410 1-837)
chain: MNHLEGSAEVEVTDEAAGGEVNESVEADLEHPEVEEEQQQPPQQQHYVGRHQRGRALEDLRAQLGQEEEERGECLARSASTESGFHNHTDTAEGDVIAAARDGYDAERAQDPEDESAYAVQYRPEAEEYTEQAEAEHAEATHRRALPNHLHFHSLEHEEAMNAAYSGYVYTHRLFHRGEDEPYSEPYADYGGLQEHVYEEIGDAPELDARDGLRLYEQERDEAAAYRQEALGARLHHYDERSDGESDSPEKEAEFAPYPRMDSYEQEEDIDQIVAEVKQSMSSQSLDKAAEDMPEAEQDLERPPTPAGGRPDSPGLQAPAGQQRAVGPAGGGEAGQRYSKEKRDAISLAIKDIKEAIEEVKTRTIRSPYTPDEPKEPIWVMRQDISPTRDCDDQRPMDGDSPSPGSSSPLGAESSSTSLHPSDPVEASTNKESRKSLASFPTYVEVPGPCDPEDLIDGIIFAANYLGSTQLLSDKTPSKNVRMMQAQEAVSRIKMAQKLAKSRKKAPEGESQPMTEVDLFISTQRIKVLNADTQETMMDHPLRTISYIADIGNIVVLMARRRMPRSNSQENVEASHPSQDGKRQYKMICHVFESEDAQLIAQSIGQAFSVAYQEFLRANGINPEDLSQKEYSDLLNTQDMYNDDLIHFSKSENCKDVFIEKQKGEILGVVIVESGWGSILPTVIIANMMHGGPAEKSGKLNIGDQIMSINGTSLVGLPLSTCQSIIKGLKNQSRVKLNIVRCPPVTTVLIRRPDLRYQLGFSVQNGIICSLMRGGIAERGGVRVGHRIIEINGQSVVATPHEKIVHILSNAVGEIHMKTMPAAMYRLLTAQEQPVYI
B3: HA-X11L2 (from pcDNA3.1-HA-X11L2) (protein, UniProt O96018 1-575)
chain: MDFPTISRSPSGPPAMDLEGPRDILVPSEDLTPDSQWDPMPGGPGSLSRMELDESSLQELVQQFEALPGDLVGPSPGGAPCPLHIATGHGLASQEIADAHGLLSAEAGRDDLLGLLHCEECPPSQTGPEEPLEPAPRLLQPPEDPDEDSDSPEWVEGASAEQEGSRSSSSSPEPWLETVPLVTPEEPPAGAQSPETLASYPAPQEVPGPCDHEDLLDGVIFGARYLGSTQLVSERNPPTSTRMAQAREAMDRVKAPDGETQPMTEVDLFVSTKRIKVLTADSQEAMMDHALHTISYTADIGCVLVLMARRRLARRPAPQDHGRRLYKMLCHVFYAEDAQLIAQAIGQAFAAAYSQFLRESGIDPSQVGVHPSPGACHLHNGDLDHFSNSDNCREVHLEKRRGEGLGVALVESGWGSLLPTAVIANLLHGGPAERSGALSIGDRLTAINGTSLVGLPLAACQAAVRETKSQTSVTLSIVHCPPVTTAIIHRPHAREQLGFCVEDGIICSLLRGGIAERGGIRVGHRIIEINGQSVVATPHARIIELLTEAYGEVHIKTMPAATYRLLTGQEQPVYL

The test has as its target FLAG-APP695 (from pcDNA3-FLAG-APP695) (UniProt P05067). Briefly: co-IP; N2a cells co-transfected with pcDNA3-FLAG-APP695 and HA-X11, HA-X11L or HA-X11L2; lysates immunoprecipitated with anti-FLAG antibody; blot with anti-HA and anti-FLAG.
In the case of B1, the binding result was “binds”.

In the case of B2, the binding entry is listed as “binds”.

With B3, the binding result is on record as “binds”.
